PubChem BioAssay AID2675 (National Center for Advancing Translational Sciences (NCATS), 2010)
Out of some 280,000 compounds screened, about 100 (0.036%) were called active. Inconclusive results, whose numbers are uncertain, are shown with a selection of clear calls. The call rests on the fitted dose curve; in most records, active means well fitted inhibition curve with a large enough effect in the signal ratio, with a control signal flat (not every such curve was filed as active); inconclusive means small, poorly fitted or top-dose-only effect, or effect the other way, or a change in a side signal; inactive means no such curve, though single readings can be large or run the other way; the % refers to the signal ratio. Potencies beside an inconclusive call are fits to weak or partial responses and may not hold up. A note “side channel” means that the fit belongs to a control or component signal, not to the main read-out.
On the % scale 0 is the no-effect control and ±100 the full control effect; potency means the concentration at half of the fitted maximal effect; tags describe the fitted curve by direction and shape or compound fluorescence and quenching.

Each compound was assayed against Muscleblind-like protein 1 (Homo sapiens) (UniProt Q9NR56) (assay: qHTS Assay for Inhibitors of MBNL1-poly(CUG) RNA binding). Details: TR-FRET MBNL1-His/biotin-(CUG)12 binding, 665/545 ratio; activity change, negative = inhibition: at 57.5 µM (top of the series).
Chain of UniProt Q9NR56 (Q9NR56 whole entry, looked up): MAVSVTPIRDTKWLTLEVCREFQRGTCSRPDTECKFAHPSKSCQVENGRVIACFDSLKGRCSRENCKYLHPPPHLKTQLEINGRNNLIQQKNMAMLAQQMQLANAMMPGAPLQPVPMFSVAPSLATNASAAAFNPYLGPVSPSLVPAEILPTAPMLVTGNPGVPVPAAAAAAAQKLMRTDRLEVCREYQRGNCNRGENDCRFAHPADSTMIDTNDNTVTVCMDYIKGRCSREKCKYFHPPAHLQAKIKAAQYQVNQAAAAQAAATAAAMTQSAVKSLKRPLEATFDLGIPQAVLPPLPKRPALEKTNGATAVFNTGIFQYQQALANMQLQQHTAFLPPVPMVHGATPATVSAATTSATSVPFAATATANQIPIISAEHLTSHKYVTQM
Procedure, shortened: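 TR-FRET readout: Ex 340 nm, 665/545 nm emission ratio, normalized to buffer-only (basal) and MBNL1-(CUG)12 controls. Complex of MBNL1-His with Biotin-(CUG)12, compounds 92 nM–58 uM, incubated 60 min at room temperature.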
With `COc1ccc2c(c1)c(C(=O)N/N=C/c1ccc(O)c(O)c1)c(C)n2C` the Potency was inconclusive: 22.4 µM [quencher, side channel, partial curve, poor fit].
`CCCCc1c(C)nc2ccc(Br)cc2c1SCCC#N` was tested, and the Potency was inconclusive: 0.126 µM [fluorescent, side channel, full curve, poor fit].
For `COCCN(CCOC)Cc1c(O)ccc2c1O/C(=C\c1ccc(C)o1)C2=O`, the Potency was inconclusive: 15.8 µM [quencher, side channel, partial curve].
With `CCOCC(=O)Nc1nc2ccccc2s1` the Potency was inconclusive: 63.1 µM [inhibitor, single point].
In the case of `Cc1ccc(CCC(=O)Nc2ccc([N+](=O)[O-])cc2)o1`, the Potency was inconclusive: 31.6 µM [quencher, side channel, partial curve].
For `O=[N+]([O-])c1ccc(Cc2cncc(O)c2)cc1`, the Potency was inconclusive: 31.6 µM [quencher, side channel, single point].
For `O=S(=O)(c1ccccc1)N1CCN(c2cc(-c3ccccc3)nc3ncnn23)CC1`, the Potency was inconclusive: 100 µM [inhibitor, single point].
In the case of `CCN1C(=O)c2ccc(C(=O)NCc3ccccc3)cc2C1=O`, the Potency was inconclusive: 2.24 µM [quencher, side channel, full curve].
In the case of `O=c1c2ccccc2[nH]c(=S)n1CCN1CCN(Cc2ccccc2)CC1`, the Potency was inconclusive: 158 µM [inhibitor, partial curve, poor fit].
For `C/C(=N\NC(=O)C(N)=O)c1cccc([N+](=O)[O-])c1`, the Potency was inconclusive: 28.2 µM [quencher, side channel, partial curve].
With `COc1ccc(C(=O)/C=C/Nc2cccc(O)c2)cc1` the Potency was inconclusive: 14.1 µM [quencher, side channel, partial curve].
With `Cc1cccc(/C=C2\Oc3cc(OS(C)(=O)=O)ccc3C2=O)c1` the Potency was inconclusive: 28.2 µM [quencher, side channel, single point].
With `O=C(CN1CCCC1)Nc1nnc(-c2cccs2)s1` the Potency was inconclusive: 28.2 µM [quencher, side channel, single point].
`Cc1ccc2cc(C(=O)O)c(C)nc2c1` was tested, and the Potency was “inactive”.
With `COc1ccc(/C=N/NC(=O)c2cc[n+]([O-])cc2)cc1` the Potency was inconclusive: 10 µM [quencher, partial curve].
With `CCOc1ccc2nc3c(cc2c1)CN(CCOC)C(=NC)S3` the Potency was “inactive”.
With `COc1ccc(-c2cc(C(F)(F)F)n3nc(C(=O)O)nc3n2)cc1` the Potency was inconclusive: 15.8 µM [quencher, side channel, partial curve].
In the case of `O=C(N/N=C/C=C/c1ccc([N+](=O)[O-])cc1)c1cccs1`, the Potency was inconclusive: 3.98 µM [quencher, side channel, full curve].
In the case of `CCOC(=O)c1c(/N=C/c2cccc([N+](=O)[O-])c2O)sc(C)c1C`, the Potency was inconclusive: 15.8 µM [quencher, side channel, single point].
With `CCC(C)(C)n1nnnc1C(c1cc2cccc(C)c2[nH]c1=O)N1CCCC1` (stereo not given) the Potency was inconclusive: 44.7 µM [quencher, side channel, partial curve, poor fit].
With `O=C(Oc1ccc(Cl)c2cccnc12)c1cccnc1` the Potency was “inactive”.
`O=C(O)c1cc(N/N=C/c2cccnc2)ccc1Cl` was tested, and the Potency was inconclusive: 22.4 µM [quencher, side channel, partial curve].
In the case of `CCOC(=O)c1ccccc1OC(=O)CS(=O)c1ccccc1[N+](=O)[O-]` (stereo not given), the Potency was inconclusive: 14.1 µM [quencher, side channel, partial curve].
In the case of `Nc1cc(=O)[nH]c(SCc2ccccc2Cl)n1`, the Potency was inconclusive: 7.08 µM [fluorescent, side channel, single point].
For `COc1ccc(N2C(=O)CS/C2=C\[N+](=O)[O-])cc1`, the Potency was inconclusive: 12.6 µM [quencher, side channel, partial curve].
`Cc1ccc(N2C(=O)c3cccc4c(N5CCN(C)CC5)ccc(c34)C2=O)c2cccnc12` was tested, and the Potency was inconclusive: 1.41 µM [quencher, side channel, full curve].
For `CCCCNC(=O)CSc1nc2ccc(N3CCOCC3)cc2c(=O)n1CCc1ccccc1`, the Potency was inconclusive: 0.0891 µM [fluorescent, side channel, full curve].
In the case of `O=c1oc2ccc(Cl)cc2cc1-c1ccccc1`, the Potency was inconclusive: 0.141 µM [quencher, side channel, full curve, poor fit].
In the case of `CC(C)c1ccc(-n2cnn(-c3ncccc3[N+](=O)[O-])c2=O)cc1`, the Potency was inconclusive: 28.2 µM [quencher, side channel, partial curve].
`O=C1c2cccc3cccc(c23)C(=O)N1CC1CCCO1` (stereo not given) was tested, and the Potency was inconclusive: 12.6 µM [quencher, side channel, partial curve].
For `CS(=O)(=O)c1ccc(SCC(=O)NC2CCS(=O)(=O)C2)c([N+](=O)[O-])c1` (stereo not given), the Potency was inconclusive: 15.8 µM [quencher, side channel, partial curve].
`O=C(NCN1C(=O)C2C3C=CC(C3)C2C1=O)Nc1nncs1` (stereo not given) was tested, and the Potency was inconclusive: 50.1 µM [inhibitor, single point].
`O=C(CN1CCCCC1)c1c[nH]c2ccccc12` was tested, and the Potency was “inactive”.
For `CN(C)S(=O)(=O)c1cccc(C(=O)Nc2ccccc2[N+](=O)[O-])c1`, the Potency was inconclusive: 12.6 µM [quencher, side channel, partial curve].
`Cc1ccc2oc(=O)c3cc(C(=O)N4CCN(C)CC4)sc3c2c1` was tested, and the Potency was inconclusive: 20 µM [quencher, side channel, single point].
In the case of `COc1ccc(-n2nc(C(=O)NCC(=O)N3CCC(C)CC3)c3ccccc3c2=O)cc1`, the Potency was inconclusive: 15.8 µM [quencher, side channel, partial curve].
In the case of `Cc1nn(-c2ccccc2)c(Cl)c1/C=N/NC(=O)c1nn(C)cc1[N+](=O)[O-]`, the Potency was inconclusive: 7.94 µM [quencher, side channel, full curve].
`O=C(CN1CCN(C2CCCCC2)CC1)Nc1ccccc1-c1ccccc1` was tested, and the Potency was inconclusive: 0.1 µM [fluorescent, side channel, full curve, poor fit].
With `COc1ccccc1N1C(=O)c2cccc3c(Cl)ccc(c23)C1=O` the Potency was inconclusive: 2.51 µM [quencher, full curve].
`O=C(CCN1C(=O)/C(=C/c2cccs2)SC1=S)Nc1ccc(C(=O)O)c(O)c1` was tested, and the Potency was inconclusive: 20 µM [quencher, side channel, partial curve].
In the case of `O=C(c1cccs1)c1ccc(-c2cccs2)s1`, the Potency was inconclusive: 15.8 µM [quencher, side channel, partial curve].
`Cc1ccc2nc(SCC(=O)NC3CCCC3)[nH]c2c1` was tested, and the Potency was “inactive”.
With `CCOC(=O)C1=C(CN2CCOCC2)NC(=O)NC1c1cccc([N+](=O)[O-])c1` (stereo not given) the Potency was inconclusive: 35.5 µM [quencher, side channel, single point].
With `CC(C)OC(=O)c1c2c(n3ccccc13)C(=O)c1ccccc1C2=O` the Potency was “inactive”.
For `CC1(C)CC(=O)c2sc(NC(=O)C3COc4ccccc4O3)nc2C1` (stereo not given), the Potency was inconclusive: 0.794 µM [quencher, side channel, partial curve, poor fit].
`Cc1cc(Cl)ccc1N(CC(=O)NCc1ccc2c(c1)OCO2)S(C)(=O)=O` was tested, and the Potency was “inactive”.
With `N/C(=N\OC(=O)CCCOc1ccccc1)c1cccc([N+](=O)[O-])c1` the Potency was inconclusive: 11.2 µM [quencher, side channel, partial curve].
In the case of `C=CCn1c(-c2cccc(OC)c2)n[nH]c1=S`, the Potency was “inactive”.
`C/C(=N/NC(=O)COc1cc(C)ccc1C(C)C)C(=O)O` was tested, and the Potency was “inactive”.
With `O=C1c2cccc3cccc(c23)C(=O)N1c1cccnc1` the Potency was inconclusive: 11.2 µM [quencher, side channel, partial curve].
For `O=C(O)CN1C(=O)S/C(=C\c2cccnc2)C1=O`, the Potency was inconclusive: 31.6 µM [quencher, side channel, single point].
In the case of `COCC(=O)N(Cc1cc2ccc(C)cc2[nH]c1=O)c1ccccc1C`, the Potency was inconclusive: 28.2 µM [fluorescent, side channel, single point].
`O=[N+]([O-])c1ccc2nc(NS(=O)(=O)c3ccc(F)cc3)sc2c1` was tested, and the Potency was inconclusive: 22.4 µM [quencher, side channel, partial curve].
`CCCCCOc1ccc(Br)cc1CSC(=N)N` was tested, and the Potency was “inactive”.
`O=C(Cn1cnc2ccccc21)N/N=C/c1cccs1` was tested, and the activity change, negative = inhibition was inconclusive: 20.3% [phenotype inactive].
`COCC(=O)N=Nc1c(O)[nH]c2ccccc12` was tested, and the Potency was inconclusive: 14.1 µM [quencher, side channel, partial curve].
In the case of `CCOC(=O)c1c(NC(=O)C[n+]2ccc(Cc3ccccc3)cc2)sc(C)c1C`, the Potency was inconclusive: 14.1 µM [quencher, side channel, partial curve].
For `Cc1cc(C)n(-c2ccc(Cl)c(C(=O)Nc3cc(C(F)(F)F)ccc3Cl)n2)n1`, the Potency was inconclusive: 28.2 µM [quencher, side channel, single point].
For `COc1ccc(C2C(C(C)=O)=C(Nc3ccccc3)CC(C)(O)C2C(C)=O)cc1OC` (stereo not given), the Potency was inconclusive: 7.08 µM [quencher, side channel, single point].
In the case of `CC(C)OCCCNc1ccc(N2C(=O)CCCC2=O)cc1[N+](=O)[O-]`, the Potency was inconclusive: 25.1 µM [quencher, side channel, partial curve].
